The list shows a part of the results.
Tests used:
Assay in all cases: glycan array binding signal (z-score within array); higher = stronger binding
Settings in all cases: glycan notation: IUPAC condensed, linker removed; mutation: Y228W
[1] = molecular target: Neu5Ac(a2-6)GlcNAc(b1-4)GlcNAc(b1-4)GlcNAc
Method in brief: (§1)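 The binding signal is a Z-score computed within each array and averaged over linkers. Arrays of the same protein sequence at different concentrations or buffers were also averaged together. Data originate from 3228 arrays in the Consortium for Functional Glycomics database, kept only where the protein sequence was available.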

Neu5Ac(a2-8)Neu5Ac = molecular target: Neu5Ac(a2-8)Neu5Ac
Method in brief: as §1

[2] = molecular target: Neu5Ac(a2-8)Neu5Ac(a2-3)Gal(b1-3)GalNAc(b1-4)[Neu5Ac(a2-3)]Gal(b1-4)Glc
Method in brief: as §1

[3] = molecular target: Neu5Ac(a2-8)Neu5Ac(a2-3)Gal(b1-3)GalNAc(b1-4)[Neu5Ac(a2-8)Neu5Ac(a2-3)]Gal(b1-4)Glc
Method in brief: as §1

[4] = molecular target: Neu5Ac(a2-8)Neu5Ac(a2-3)Gal(b1-4)Glc
Method in brief: as §1

[5] = molecular target: Neu5Ac(a2-8)Neu5Ac(a2-3)Gal(b1-4)GlcNAc
Method in brief: as §1

[6] = molecular target: Neu5Ac(a2-8)Neu5Ac(a2-3)[Gal(b1-3)GalNAc(b1-4)]Gal(b1-4)Glc
Method in brief: as §1

[7] = molecular target: Neu5Ac(a2-8)Neu5Ac(a2-3)[GalNAc(b1-4)]Gal(b1-4)Glc
Method in brief: as §1

[8] = molecular target: Neu5Ac(a2-8)Neu5Ac(a2-8)Neu5Ac
Method in brief: as §1

[9] = molecular target: Neu5Ac(a2-8)Neu5Ac(a2-8)Neu5Ac(a2-3)Gal(b1-4)Glc
Method in brief: as §1

[10] = molecular target: Neu5Ac(a2-8)Neu5Ac(a2-8)Neu5Ac(a2-3)[Gal(b1-3)GalNAc(b1-4)]Gal(b1-4)Glc
Method in brief: as §1

[11] = molecular target: Neu5Ac(a2-8)Neu5Ac(a2-8)Neu5Ac(a2-3)[GalNAc(b1-4)]Gal(b1-4)Glc
Method in brief: as §1

[12] = molecular target: Neu5Ac(a2-8)Neu5Ac(a2-8)Neu5Ac(a2-8)Neu5Ac(a2-3)[GalNAc(b1-4)]Gal(b1-4)Glc
Method in brief: as §1

[13] = molecular target: Neu5Ac(a2-8)Neu5Gc(a2-3)Gal(b1-4)GlcNAc
Method in brief: as §1

[14] = molecular target: Neu5Ac(b2-6)Gal(b1-4)GlcNAc
Method in brief: as §1

Neu5Ac(b2-6)GalNAc = molecular target: Neu5Ac(b2-6)GalNAc
Method in brief: as §1

[15] = molecular target: Neu5Ac9Ac(a2-3)Gal(b1-3)GlcNAc
Method in brief: as §1

[16] = molecular target: Neu5Ac9Ac(a2-3)Gal(b1-4)GlcNAc
Method in brief: as §1

[17] = molecular target: Neu5Ac9Ac(a2-6)Gal(b1-4)GlcNAc
Method in brief: as §1

[18] = molecular target: Neu5Gc(a2-3)Gal(b1-3)GlcNAc
Method in brief: as §1

[19] = molecular target: Neu5Gc(a2-3)Gal(b1-3)[Fuc(a1-4)]GlcNAc
Method in brief: as §1

Neu5Gc(a2-3)Gal(b1-4)Glc = molecular target: Neu5Gc(a2-3)Gal(b1-4)Glc
Method in brief: as §1

[20] = molecular target: Neu5Gc(a2-3)Gal(b1-4)GlcNAc
Method in brief: as §1

[21] = molecular target: Neu5Gc(a2-3)Gal(b1-4)GlcNAc(b1-3)Gal(b1-4)GlcNAc(b1-2)Man(a1-3)[Neu5Gc(a2-3)Gal(b1-4)GlcNAc(b1-3)Gal(b1-4)GlcNAc(b1-2)Man(a1-6)]Man(b1-4)GlcNAc(b1-4)GlcNAc
Method in brief: as §1

[22] = molecular target: Neu5Gc(a2-3)Gal(b1-4)[Fuc(a1-3)]GlcNAc
Method in brief: as §1

[23] = molecular target: Neu5Gc(a2-6)Gal(b1-4)GlcNAc
Method in brief: as §1

Neu5Gc(a2-6)GalNAc = molecular target: Neu5Gc(a2-6)GalNAc
Method in brief: as §1

[24] = molecular target: Neu5Gc(a2-8)Neu5Ac(a2-3)Gal(b1-4)GlcNAc
Method in brief: as §1

[25] = molecular target: Neu5Gc(a2-8)Neu5Gc(a2-3)Gal(b1-4)GlcNAc
Method in brief: as §1

[26] = molecular target: Neu5Gc(a2-8)Neu5Gc(a2-3)Gal(b1-4)GlcNAc(b1-3)Gal(b1-4)GlcNAc
Method in brief: as §1

[27] = molecular target: Neu5Gc(a2-8)Neu5Gc(a2-6)Gal(b1-4)GlcNAc
Method in brief: as §1

[28] = molecular target: Neu5Gc(b2-6)Gal(b1-4)GlcNAc
Method in brief: as §1

B1: Epa1-NP-mutant-Y228W (Candida glabrata), Q6VBJ0 (protein)
chain: MILNPALFLNKCVCIYTTLILLLLTNGGYATSSNDISLASKDPTTFPLGCSPDITTPKKGLSMELYSYDFRKKGSYPCWDAAYLDPNYPRTGYKSHRLLAKVDGVTGNINFYYHATKGCTPQLGHLPASYNYPKPLTMTNFTMLLYGYFRPKVTGFHTFTISADDLLFVNFGAGNAFDCCRRDSSADHFGNYQAYAIWGSKTAKDELTVHLDAGVYYPIRLFYNNREWDGALSFTFKTESNENTVSDFSEYFFSLDDTEEGCPGLISYDSSCASVKTSKIIGIDYHTETPNENLVPITKTIYHLGIPCTGTTTTPLCGSGFYDPLANKCVTINTSSTSSVTKTTSHTTSKEVSFHSSISSQKTLIPKSIPSPYGPIKSQSIPTEMETSSEISSSEYAFSDVISTPSHSPYTKKHSSLNSSSYTSTVIHSLTSYSISQGIFSTSLSEQNITSKSSTDKFSTATSMSNNITQSSIIISQFSTNNENYTTTSMHTSSDKISTETLNNSISTTTSILFSNSSTILKNNTTIISSDKDTHYHPVNPTIVCSTNKTEIICASITQPSISNSNNHWSSSVLKFNSTTVRSTLPSSAGSNETSINVPFSSSTESNTSTSSTSTSNSKMVRSTLPSSAGSNETSISVPFSSSTESNTSTSSTSTSNSKMVRSTLPSSAGSNETSINVPFSSSTESNTSTSSTSTSNSKTVRSTPFSSAGIIMTSLSQRNNKSASSYASSNSKCYNTADSCRKVHSTPSYLLTSSYTSEGVDYDCSLVSTKLKINDTNCVNNKHTTKSCLKTSVTTTIPTLEIKTARKSSSNTIGLHSYPTSSPNKSISSAPIIGYISSFKTIKTASPSYQTSDLTTITTITSLNNPGSTAVENTHESNDKSRKTSSNDISSKHSVIKETKDAVESSNKSHQTNTLKCSSIIIASSSHNSYESLGGTTLTLTLSKVYSPQNNDTLPFLEISEVNPSRTVLPESSKMMQYLTSTEERNKTARNTIATNIVSISTFHFEGEGNAIRMGYTQLLLMLIGIIVMNIGT
[1]
  glycan array binding signal (z-score): -0.208
Neu5Ac(a2-8)Neu5Ac
  glycan array binding signal (z-score): -0.272
[2]
  glycan array binding signal (z-score): -0.364
[3]
  glycan array binding signal (z-score): -0.095
[4]
  glycan array binding signal (z-score): -0.151
[5]
  glycan array binding signal (z-score): -0.369
[6]
  glycan array binding signal (z-score): 0.355
[7]
  glycan array binding signal (z-score): -0.26
[8]
  glycan array binding signal (z-score): -0.096
[9]
  glycan array binding signal (z-score): -0.257
[10]
  glycan array binding signal (z-score): -0.185
[11]
  glycan array binding signal (z-score): -0.209
[12]
  glycan array binding signal (z-score): 0.046
[13]
  glycan array binding signal (z-score): -0.494
[14]
  glycan array binding signal (z-score): -0.415
Neu5Ac(b2-6)GalNAc
  glycan array binding signal (z-score): 0.033
[15]
  glycan array binding signal (z-score): -0.367
[16]
  glycan array binding signal (z-score): -0.341
[17]
  glycan array binding signal (z-score): -0.174
[18]
  glycan array binding signal (z-score): -0.369
[19]
  glycan array binding signal (z-score): -0.024
Neu5Gc(a2-3)Gal(b1-4)Glc
  glycan array binding signal (z-score): -0.105
[20]
  glycan array binding signal (z-score): -0.19
[21]
  glycan array binding signal (z-score): -0.218
[22]
  glycan array binding signal (z-score): -0.107
[23]
  glycan array binding signal (z-score): -0.138
Neu5Gc(a2-6)GalNAc
  glycan array binding signal (z-score): -0.318
[24]
  glycan array binding signal (z-score): -0.194
[25]
  glycan array binding signal (z-score): -0.269
[26]
  glycan array binding signal (z-score): -0.388
[27]
  glycan array binding signal (z-score): -0.112
[28]
  glycan array binding signal (z-score): -0.105

Reference: the supplement of paper PMC8728848
